Laboratory results taken from patent US8916527B2, “Antibiotic macrocycle compounds and methods of manufacture and use thereof” (Optimer Pharmaceuticals, Inc., priority 2007, dated 2014).

Conditions: human, in vivo
Protocol: In the phase 2A study of OPT-80 in CDAD patients who were administered OPT-80 at 200 mg bid (the intended dosing regimen), fecal levels of the parent OPT-80 were 1433±975 μg/g, while fecal levels of the metabolite Formula II were 760±373 μg/g (6). Thus, after oral administration, both parent and metabolite are present at levels far in excess of their MIC values versus C. difficile (FIG. 1).

CCc1c(Cl)c(O)c(Cl)c(O)c1C(=O)O[C@H]1[C@H](O)[C@H](OC)[C@H](OC/C2=C\C=C\C[C@H](O)/C(C)=C/[C@H](CC)[C@@H](O[C@@H]3OC(C)(C)[C@@H](O)[C@H](O)[C@@H]3O)/C(C)=C/C(C)=C/C[C@@H]([C@@H](C)O)OC2=O)O[C@@H]1C [Formula II]
fecal levels: 760 ± 373 µg/g
